Results: the supplement of paper PMC11417369
± gives the standard deviation of the averaged measurements. Some of the results follow.

system: PfAP2-LT AP2 domain (GST-tagged); test: gcPBM binding intensity (ln(normalized median fluorescence intensity)); higher = stronger DNA binding
How it was run: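 The binding buffer was 1× PBS containing 1% milk, 0.2 mg/ml BSA, 0.5% salmon testes DNA and 0.03% Triton X-100. In it, GST-tagged P. falciparum DNA-binding domains expressed in E. coli were applied for 1 h to an Agilent 4 × 180k array of primer-extended double-stranded 36-bp intergenic genomic probes plus negative controls. Binding intensity, read with Alexa488 anti-GST antibody and a 488 nm scan, is the highest Masliner-normalised natural-log median intensity across replicate spots of either probe orientation.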

Row | Sequence | gcPBM binding intensity (ln)
1 | AAAAAACATACATACACACACATAAATATTTATATT [CACACA_site7300] | 9.51 ± 0.31
2 | CACAGATAAATTAACACACACACACCGATATATATA [CACACA_site6049] | 10 ± 0.16
3 | CGGAAAAATTAAAGCACACAAAAAAAAATAAAAAAA [CACACA_site1133] | 9.02 ± 0.52
4 | TTTTATTAATATTGCATGCACACTATATAATAATTG [CACACA_site1049] | 9.21 ± 0.35
5 | AATATTTCTTTAATTTGTACATATAAGGGAAAATAA [XGTACX_site6221] | 8.24 ± 0.41
6 | ATTTCTTCTTTTTTTGTGAAACTGGAATATATATAT [XGTACX_negctrl_site527] | 8.7 ± 0.5
7 | TCATTCTAAATATAAACACACATAAATAAATACATT [CACACA_site5788] | 8.79 ± 0.33
8 | ATATATATTTTAATAACACACATATATTATATTATA [CACACA_site4387] | 8.7 ± 0.38
9 | CTTAGGTGTTCATAGAGTACAAATAAAAAAATAAGA [XGTACX_site2294] | 8.77 ± 0.46
10 | TATATATATTATTATGCATGTAATAAAACAAATAAT [TGCATGCA_site625] | 8.76 ± 0.33
11 | ACGTTACATACATATACACACACATATATATATATA [CACACA_site8203] | 9.93 ± 0.16
12 | GATGTTTCTATTTTAGTGCATTTTAAATAAATAAAT | 8.46 ± 0.35
13 | GGTGGTGGTGGGTGGGTGCTTCTATTATTATATTAT [GTGCAC_site9391] | 9.835 ± 0.035
14 | ATATAGATCTATAATACACACTTATGAAATGTCTAA [CACACA_site6946] | 8.9 ± 0.4
15 | TTGTTTCCGATGAAAGAAAGGAAATTATAATATATC [GTGCAC_negctrl_site516] | 8.43 ± 0.44
16 | GTCTCCTTTATTTTTGGTACAGATAAGATAAAAGGA [XGTACX_site1591] | 8.35 ± 0.4
17 | GTGTTCATATATAGCCGTACATATGTCTTATGAACG [XGTACX_site5647] | 8.86 ± 0.49
18 | AATCAAAATATATCTACACACATTTAAGTAACCCAT [CACACA_site5846] | 9.11 ± 0.38
19 | TATAACATTATTTTGTGTACACATTCGGTTATATTA [XGTACX_site6310] | 9.06 ± 0.49

Row | Sequence | gcPBM binding intensity (ln)
20 | TTTGTGCTTATCCTAACACACACAACATATAAGAAA [CACACA_site9091] | 8.96 ± 0.35
21 | ATATATATTTTTATAACACACAATGATGTACATTAC [CACACA_site1076] | 8.99 ± 0.48
22 | TGTGTAGCTAGGGGGTTGCTAATTTTTGTTTTGACC [CACACA_negctrl_site634] | 9.41 ± 0.071
23 | TTATATATACCATAATGTACTCTATTATATAAAAAA [XGTACX_site7464] | 8.41 ± 0.4
24 | TAAAATAATATTTATGTGCACATATAATTATTAATT | 8.6 ± 0.35
25 | AGAAAAAACAAAAGAGAAATGAAAAAAAAAAAAAAA [XGTACX_negctrl_site482] | 8.51 ± 0.53
26 | TTATGTTGCGAGTTCTTAAGATATAAAAAATTCTTC [GTGCAC_negctrl_site45] | 8.51 ± 0.38
27 | ATCATAACTTGATACGCACACGTTATATAAATAAAA [CACACA_site4955] | 8.88 ± 0.4
28 | TGAGAATAAAAAAAAGGGATTATTAGATTTCTCCTT [TGCATGCA_negctrl_site326] | 8.41 ± 0.41
29 | AAGACAAATTGTGACACACACAAAAAAAAAAAAAAA [CACACA_site3727] | 9.25 ± 0.62
30 | AAAAAAATAAGGTGCACACAAAAAAAAAAAAAAAAA [CACACA_site812] | 9.11 ± 0.4
31 | ATTCAATAAACGTATTGTACAAAAGAACGATATATT [XGTACX_site2533] | 8.96 ± 0.33
32 | TATTGGATCACACAAAAATGTATAAATAAATAGAAA [TGCATGCA_negctrl_site490] | 8.71 ± 0.45
33 | TACCTTATATTATATACACACATATAATATAATATA [CACACA_site1328] | 8.78 ± 0.4
34 | GATTCATTTCGTAATACACACAACAAATATTTCAAA [CACACA_site1772] | 8.88 ± 0.39
35 | AATGTAAATAAGTGTACACATATATAATACATACAT [CACACA_site4938] | 9.2 ± 0.35
36 | TAAAAAAAAATAAAAAGTACATATATATATATATAT [XGTACX_site1155] | 9.69 ± 0.42
37 | AATGGAAAAATAGGCACACACACATAAATACAGATA [CACACA_site4844] | 9.85 ± 0.32
38 | AATATGAAACAAGACGCACACATAAATAAATAAATA [CACACA_site326] | 9.49 ± 0.42

Row | Sequence | gcPBM binding intensity (ln)
39 | AGTGCTACTCATGATTGAATAGAGGAAAAGGCGGTG [GTGCAC_negctrl_site49] | 8.85 ± 0.52
40 | CTTTAAATGATGTAAACACACACATATACATTATTA [CACACA_site9035] | 9.1 ± 0.28
41 | CACATAAAAAAATAAACACACATATGTATATAAATA [CACACA_site7483] | 9.09 ± 0.48
42 | CCATATTTAATAAAATGTACTCATTCTTTTATTTTA [XGTACX_site7802] | 8.55 ± 0.46
43 | CTGTTCAAAATATGAACACACACATATATATATATA [CACACA_site8638] | 9.71 ± 0.17
44 | TTAATAGTGGAAATATGTACATAATTTTGGTCTTTT [XGTACX_site1664] | 8.73 ± 0.4
45 | TTGAAAAATCAGCACACACACAAATACATACATATT [CACACA_site7505] | 9.7 ± 0.33
46 | CTAAAAAAATAATAAAGTACACAAACGAATATATAA [XGTACX_site668] | 8.96 ± 0.4
47 | ACATATGGCACATATGTACACACGTATAGATAATAT [CACACA_site2024] | 9.3 ± 0.5
48 | TTTTTTTTTTTTTTTGCACACTATATTTAATATAAG [CACACA_site2444] | 8.77 ± 0.46
49 | CTTTTTTGGTACATCACACATTTTTACATTCCCTTT [CACACA_site4957] | 9.02 ± 0.52
50 | CCACTATATAAAATCACACATTTATATTATACATAT [CACACA_site4570] | 8.9 ± 0.46
51 | ATAGATGCATATTATACACACATATGTAAATACATT [CACACA_site4691] | 9.29 ± 0.4
52 | TATTGGTAATGTAAATGTACATATAGATATTTACAT [XGTACX_site1922] | 8.69 ± 0.33
53 | TTTATTTTAATTTATTGTACATTGTTATCAAGTGCA [XGTACX_site1110] | 8.51 ± 0.49
54 | TTGAAGTTAATAAAAACTTTATACATGAAATTATTT [CACACA_negctrl_site684] | 8.36 ± 0.47
55 | AAAAAAAGAAATTAGGTGCATAGCATTAACCGATAA [GTGCAC_site9582] | 8.81 ± 0.51
56 | ATAATAGTTAAATGTACACACTAACTACATGGAATA [CACACA_site5753] | 8.98 ± 0.31
57 | GATTCCTTTAACCCTGCACACATACATACATTTATA [CACACA_site9308] | 9.34 ± 0.35
